Laboratory results as given in ChEMBL document CHEMBL1201862, “PubChem BioAssay data set” (2004).
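48-hour exposure; five concentrations; linearly interpolated endpoints. GI50: concentration for 50% inhibition of growth.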 Active and inactive are the calls of the source. No stated cut-off is given here; in the data, active = GI50 up to about 1.1 µM and inactive = higher.

These molecules were tested on NCI-H322M (assay: DTP human tumour cell line panel, 48 h).

| SMILES | GI50 |
| --- | --- |
| Cc1cc2c(SCc3ccccc3Cl)nc(N)nc2nc1C | inactive: > 100 µM |
| Nc1nc(SCCc2ccccc2)c2nc[nH]c2n1 | inactive: 75.5 µM |
| CCCCCCCCCCCCC(=O)CCCCC(=O)O | inactive: 15.9 µM |
| CCCCCCCCCCCCCCCC[N+](C)(C)CCl | inactive: 13.5 µM |
| O=C(CCCN1CCC(C(O)c2ccc(F)cc2)CC1)c1ccc(F)cc1 (centres undefined) | inactive: 49.9 µM |
| CC(C)[Si](OC1=C(C(=O)N(C)c2ccccc2Cl)CCCCC1)(C(C)C)C(C)C | inactive: > 100 µM |
| CN/C=C(/c1ccc(OC)cc1)C(O)c1ccc(OC)c(OC)c1 (centres undefined) | inactive: > 100 µM |
| Nc1nc(-c2ccccc2)nc2oc(-c3cccs3)nc12 | inactive: > 100 µM |
| C=CCc1cccc(C(=O)/C=C(O)/C=C/c2ccccc2Cl)c1O | inactive: 10.7 µM |
| C=CCC1(O)c2cccc(O)c2C(=O)c2cccc(O)c21 (centres undefined) | inactive: 26.6 µM |
| O=C1OC(=O)C(=C\c2ccc3c(c2)OCO3)/C1=C/c1ccc2c(c1)OCO2 | inactive: > 100 µM |
| Cc1ccc([S+]([O-])c2cccs2)cc1 (centres undefined) | inactive: > 100 µM |
| CCc1cc(-c2nsc(=O)o2)c(S(=O)(=O)CC)s1 | inactive: > 100 µM |
| COc1cc(OC)c2nc(C)c(CCCl)c(Cl)c2c1 | inactive: > 100 µM |
| CC1(C)CC2C(/C1=N/O)C1(C)CCCC2(C)C1O (centres undefined) | inactive: > 100 µM |
| COc1cc(C2c3cc4c(cc3OC(NNc3ccccc3)C2C)OCO4)cc(OC)c1O (centres undefined) | inactive: 4.56 µM |
| O=[N+]([O-])/C(C(Cl)=C(Cl)Cl)=C(\Nc1cccc2cccnc12)Sc1ccccc1 | inactive: 41 µM |
| CCOC(=O)C[n+]1ccc2c([nH]c3cc(OC)ccc32)c1C | inactive: > 100 µM |
| C=CCN1CCC(O)(c2cc(C(=O)OCC)[nH]c2-c2cc(C)no2)C1 (centres undefined) | inactive: > 100 µM |
| COc1ccc(NC(=S)Nc2cc(C)ccn2)cc1 | inactive: > 100 µM |
| NC(=O)NNCc1ccccc1 | inactive: > 100 µM |
| C=C1C(=O)C2(C)OC2(C)C1C(=O)O (centres undefined) | inactive: > 100 µM |
| CC(C)=NNC(=S)NC12CC3CC(CC(C3)C1)C2 | inactive: > 100 µM |

| SMILES | GI50 |
| --- | --- |
| CC(C)C(/C=C/c1ccc(Cl)cc1)=N\NC(=S)NN | inactive: 18.5 µM |
| CN(C)CC1CCC/C1=N/OC(=O)c1ccccc1 (centres undefined) | inactive: > 100 µM |
| C=C(c1ccccc1)C1(O)CCCCC1N (centres undefined) | inactive: > 100 µM |
| CN(C)c1cccc(OC(=O)NCCCl)c1 | inactive: > 100 µM |
| COC(=O)c1s/c(=N\C(=S)N(C)C)n(-c2ccccc2)c1C(=O)OC | inactive: > 100 µM |
| CC(=O)NC1C(OCc2ccccc2)OC(CO)C(O)C1OCC(=O)N[C@@H](C)C(=O)N[C@H](CCC(=O)NCCNc1ccc([N+](=O)[O-])c2[nH]c3ccccc3c(=O)c12)C(N)=O (some centres undefined) | inactive: 29.6 µM |
| CC(OC1CC(=O)CC2C(=O)C=CC(=O)C12)c1ccccc1 (centres undefined) | inactive: 25.6 µM |
| O=[N+]([O-])c1cccc(/C=N/C23CC4CC(CC(C4)C2)C3)c1 | inactive: > 100 µM |
| O=C(O)C1CCC(=O)N1S(=O)(=O)c1ccccc1 (centres undefined) | inactive: > 100 µM |
| S=C(NCCc1ccccn1)N/N=C(\c1ccccc1)c1ccccn1 | active: 0.579 µM |
| CCOc1ccccc1NC(=O)CCc1nnc(S)[nH]1 | inactive: > 100 µM |
| O=C(CC1(O)C(=O)Nc2ccc(Br)cc21)c1cccc([N+](=O)[O-])c1 (centres undefined) | inactive: 63.7 µM |
| COC(=O)CCc1ccc(CCC(=O)OC)cc1 | inactive: > 100 µM |
| N#CC1(c2nc3ccccc3o2)C(=O)C(=O)N(C2C3CC4CC(C3)CC2C4)C(=O)C1=O (centres undefined) | inactive: > 100 µM |
| N#Cc1c(OCCF)c2ccccc2n2c1nc1ccccc12 | inactive: > 100 µM |
| O=C(Nc1ccccc1)c1cc2ccccc2c(/N=N\c2cccc([N+](=O)[O-])c2)c1O | inactive: > 100 µM |
| CCCn1cc2c(O)nc(SC)nc2n1 | inactive: 50.5 µM |
| Nc1ncnc2c1ncn2C1CC(OC2CCCCO2)C(CO)O1 (centres undefined) | inactive: > 100 µM |
| CN(C)c1nc(N(C)C)nc(N(C)C23CC4CC(CC(C4)C2)C3)n1 | inactive: 21.9 µM |
| CN(C)c1nc(N)nc(CS)n1 | inactive: > 100 µM |
| COc1ccc(/C=C2\C(=O)N(C(=O)c3ccc(NC(C)=O)cc3)N=C2C)cc1 | inactive: > 100 µM |
| Cc1nc(O)nc2nc3ccc(Cl)cc3c(NC(C)(CO)CO)c12 | inactive: > 65.6 µM |
| COc1ccc(C(OC(C)=O)C2C(=C(C#N)C#N)c3ccccc3C2=C(C#N)C#N)cc1 (centres undefined) | inactive: 34.7 µM |

| SMILES | GI50 |
| --- | --- |
| COc1cc([C@@H]2c3cc4c(cc3[C@@H](NC(=O)c3ccc(N)cc3)C3COC(=O)[C@@H]32)OCO4)cc(OC)c1O (some centres undefined) | inactive: 10.4 µM |
| Nc1nn2c(nc(N)c3c(N)n[nH]c32)c1/N=N\c1ccc(Br)cc1 | inactive: 29.5 µM |
| COc1c(C)c(OC)c2c(c1O)[C@@H]1[C@@H]3Cc4c(OC)c(C)c(OC)c(O)c4[C@H](CNC(=O)c4cnc5ccccc5n4)N3[C@@H](C#N)[C@H](C2)N1C | active: 0.0105 µM |
| c1ccc2c(c1)cc1n2CC2CN=NC12 (centres undefined) | inactive: > 100 µM |
| COc1ccc(C2=C(Cl)c3cc(OC)c(OC)cc3C2OC)cc1OC (centres undefined) | inactive: > 100 µM |
| CCC(C)NC(=S)N/N=C(\C)c1ccccn1 (centres undefined) | active: < 0.024 µM |
| CCOC(=O)C1CC(=O)C=C2CCCCC21 (centres undefined) | inactive: > 100 µM |
| O=CC1=CCC2c3[nH]c4ccccc4c3CCN2C1 (centres undefined) | inactive: 76 µM |
| CC(C)(C)[Si](C)(C)OCC1OC(n2cc(F)c(=O)[nH]c2=O)CC1O[Si](C)(C)C(C)(C)C (centres undefined) | inactive: 11.9 µM |
| COC[C@H](C)/N=C/N1CCc2ccccc2C1(Cc1ccccc1)Cc1ccccc1 | inactive: 22.7 µM |
| CC(C)c1cccc2sc(NC(=O)C(=O)CC(=O)c3ccc(F)cc3)nc12 | inactive: > 100 µM |
| Cc1ccc(S(=O)(=O)OC2CS[S+]([O-])CC2OS(=O)(=O)c2ccc(C)cc2)cc1 (centres undefined) | inactive: 20.3 µM |
| COC1=CC(=C(C#N)/C(=N\c2ccccc2)SC)C=C(OC)C1=O | inactive: > 100 µM |
| CC(=O)OCC1OC(Nc2nc(O)n(C)c(=O)c2-c2csc(N)n2)C(OC(C)=O)C(OC(C)=O)C1OC(C)=O (centres undefined) | inactive: > 100 µM |
| CC(C)CCOC(=O)NC(Nc1ccc(F)cc1)(C(F)(F)F)C(F)(F)F | inactive: 61.2 µM |
| O=C(O)C(O)C(O)C(O)C(O)c1nc2ccccc2s1 (centres undefined) | inactive: 20.6 µM |
| C[C@@H]1[C@@H](c2ccccc2)O[B-](c2ccccc2)(c2ccccc2)[N+]1(C)C | inactive: > 100 µM |
| CC(=O)OCC1OC(OC2CC3C(C)(C)C(OC(C)=O)CC[C@]3(C)C3CCC45CC4(CCC5[C@@H](C)C[C@H](O)C(O)C(C)(C)O)[C@]23C)C(O)C(O)C1O (some centres undefined) | inactive: > 10 µM |
| C=CC1=CC(C)C[C@]1(O)C(=O)OC (some centres undefined) | active: < 0.01 µM |
| Oc1cc(-c2cccc3ccccc23)nc2ncccc12 | active: 0.0449 µM |
| COC(=O)[C@H](Cc1ccccc1)NC(=O)CCCCCCC(=O)NO | inactive: 96.4 µM |
| CC(C)c1cccc(C(C)C)c1NC(=O)C(=O)CC(=O)CC(c1ccccc1)c1c(O)oc2ccccc2c1=O (centres undefined) | inactive: > 100 µM |
| COc1ccc2c(c1)/C(=C\c1c(Cl)n(-c3ccccc3)c3ccccc13)C(=O)N2 | inactive: 13.1 µM |
